Among all 340,000 compounds or so, about 12,000 (3.5%) were called active. The shares of active, inactive and inconclusive entries below differ from those in the screen. Calls follow the shape of the dose curve; as a rule, active = well fitted inhibition curve with a large enough effect; inconclusive = small, poorly fitted or top-dose-only effect, or another doubt; inactive = no such curve, though single readings can be large or run the other way. Potencies of inconclusive entries are left out as doubtful fits.
Assay: qHTS Assay for Inhibitors of Hepatitis C Virus (HCV)
Details: Huh7.5.1 HCVcc-Cre (HCVcc is cell-culture hepatitis C virus) infection, luciferase reporter, 44 h; activity change, negative = inhibition: at 41.8 µM (top of the series) unless noted
Method in brief: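 Infectious HCVcc-Cre (~0.5 moi) was added to cells just after compound, with cells seeded 4 h earlier at 1,000 per well. Luciferase activity after 44 h culture reported infection; substrate was incubated 15 min at room temperature before reading.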
% is scaled to controls: 0 for no effect and ±100 for the full control effect; potency is read from the fitted curve at half-maximal effect; tags tell the direction and shape of the fitted curve.

Compound | Potency | activity change, negative = inhibition
COC(=O)c1cc(OC)c(OC)cc1NC(=O)c1ccc(C)o1 | inconclusive [inhibitor, partial curve] | 
COC(=O)c1sc2ccccc2c1NC(=O)c1ccc(S(=O)(=O)N2CCCCC2C)cc1 (centres undefined) |  | inactive: -23.8%
CCCCN1CCc2c(c3ccccc3n2Cc2ccccc2)C1 | inconclusive [inhibitor, single point] | 
O=C(CN1CCCCC1)Nc1ccc(S(=O)(=O)N2CCOCC2)cc1 | inconclusive [inhibitor, single point] | 
COc1ccc(OC)c(S(=O)(=O)N2CCC(C(=O)NC(C)c3ccccc3)CC2)c1 (centres undefined) |  | inactive: -3.1%
Cc1ccc(C)c2[nH]c(=O)c(CN(Cc3ccc4c(c3)OCO4)Cc3nnnn3Cc3ccco3)cc12 | inconclusive [inhibitor, single point] | 
CC(C)Nc1nc(-c2cccnc2)nc(-c2ccccc2)c1C#N | inconclusive [inhibitor, single point] | 
O=[N+]([O-])c1cccc(-c2ccc(/C=N/NC(=S)NCc3ccco3)o2)c1 | inconclusive [inhibitor, single point] | 
COc1ccc(-c2oc(/N=C/N3CCCC3)c(C#N)c2-c2ccc(OC)cc2)cc1 | inconclusive [inhibitor, full curve, poor fit] | 
CCCN1Cc2cccc(C(=O)NC(CC(=O)OCC)c3ccc(C)cc3)c2C1=O (centres undefined) |  | inactive: 5.6%
CCOC(=O)N1CCN(S(=O)(=O)c2ccc(C(=O)N(CCN(CC)CC)c3nc4ccc(C)cc4s3)cc2)CC1 | inconclusive [inhibitor, partial curve] | 
Cc1ccccc1-c1cc(C(=O)NCc2ccco2)n(CC2CC(c3cccnc3)=NO2)n1 (centres undefined) | inconclusive [inhibitor, partial curve] | 
O=C1NC(=O)C(Cc2cccs2)C(=O)N1 |  | inactive: 2.37%
O=C1CSC(=Nc2ccccc2)N1Cc1ccccc1 | inconclusive [inhibitor, single point] | 
O=C(Nc1ccc(OC(F)(F)F)cc1)C1CCCCN1S(=O)(=O)c1ccccc1 (centres undefined) | inconclusive [inhibitor, partial curve] | 
Clc1nc2c(ccc3ccccc32)[nH]1 | inconclusive [inhibitor, single point] | 
CC(C)(C)n1nnnc1C(c1cccs1)N(Cc1ccccc1)Cc1ccco1 (centres undefined) | active: 11.2 µM | 
O=C(CSc1nc2ccccc2c(=O)n1Cc1ccc(Cl)cc1)NCc1cccs1 | inconclusive [inhibitor, full curve] | 
COc1ccc(C2CC(=O)c3sc(N)nc3C2)cc1 (centres undefined) |  | inactive: 5.32%
CCOc1ccc(-n2c(SCc3cc(=O)oc4cc(C)ccc34)nnc2-c2cccnc2)cc1 | inconclusive [inhibitor, partial curve, poor fit] | 
CC1CC(C)CN(CC(=O)c2ccc(OC(F)F)cc2)C1 (centres undefined) |  | inactive: 14.8%
O=C(CCc1nc2ccccc2c(=O)[nH]1)Nc1nnc(SCc2ccccc2F)s1 | inconclusive [inhibitor, partial curve] | 
Nc1nc2ccccc2n1CCOc1ccc(F)cc1 |  | inactive: -2.62%

Compound | Potency | activity change, negative = inhibition
CCOC(=O)C1=C(C)NC(C)=C(C(=O)OCC)C1C(=O)OCC(=O)NCCc1ccccc1 | inconclusive [inhibitor, full curve] | 
CC(Cc1ccccc1)NCCC(c1ccccc1)c1ccccc1 (centres undefined) | active: 10 µM | 
CC(=O)c1ccc(OCC(=O)NCC2(N3CCCCC3)CCCCC2)cc1 |  | inactive: -0.56%
COCCCNC(=S)N1CCC(C(=O)c2ccc(Cl)cc2)CC1 | active: 3.98 µM | 
CCC1(C)Cc2ccccc2-c2nc(NCCO)n(-c3ccc(C)cc3)c(=O)c21 (centres undefined) | inconclusive [inhibitor, single point] | 
O=C(CN1CCN(c2ccccn2)CC1)N1c2ccccc2Sc2ccc(C(F)(F)F)cc21 | inconclusive [inhibitor, single point] | 
COc1ccc(-n2c(=O)c(CCC(=O)N(C)Cc3cccs3)nc3ccccc32)cc1 | inconclusive [inhibitor, partial curve] | 
CSc1nc2ncc(-c3ccsc3)c(N)n2n1 |  | inactive: 19.3%
CC(c1ccccc1)N1CC(C(=O)N2CCN(Cc3ccc(C#N)cc3)CC2)CC1=O (centres undefined) | inconclusive [inhibitor, single point] | 
Cn1cccc1/C=N/N1CCN(Cc2ccccc2Cl)CC1 | active: 0.316 µM | 
COc1ccccc1NC(=O)Nc1ccc(C(=O)N2CCCCC2)cc1 |  | inactive: -15.9%
O=C(CSc1nc2ccccc2c(=O)n1-c1ccc(F)cc1)Nc1ccc(N2CCOCC2)cc1 | inconclusive [inhibitor, full curve, poor fit] | 
CC1CN(C(=O)COC(=O)c2cc(Cl)ccc2[N+](=O)[O-])CC(C)O1 (centres undefined) |  | inactive: -5.74%
COc1ccc(C(=O)Nc2ccc(Cl)cn2)cc1Cl | inconclusive [inhibitor, full curve] | 
O=C1c2ccccc2C(=O)N1CC1c2ccccc2CCN1C(=O)C1CCCCC1 (centres undefined) |  | inactive: 6.11%
COc1cccc(CNC(=O)CSc2nnc3c(n2)[nH]c2ccccc23)c1 | active: 10 µM | 
COc1ccc(NS(=O)(=O)c2cccc(NC(=O)COc3ccc(OC)cc3)c2)cc1 | inconclusive [inhibitor, single point] | 
COC(=O)c1sc2nc3c(c(-c4cccs4)c2c1N)CCCC3 | inconclusive [inhibitor, single point] | 
c1csc(-c2nnc(Cc3cccc4ccccc34)o2)c1 |  | inactive: -17.8%
Cc1ccc(C)c(NC(=S)N=Nc2c(O)n(C)c3ccc(S(=O)(=O)N4CCOCC4)cc23)c1 | inconclusive [inhibitor, full curve] | 
CC(CCc1ccccc1)NC(=O)CCNS(=O)(=O)c1ccccc1C(F)(F)F (centres undefined) | inconclusive [inhibitor, single point] | 
Cc1ccc(C)c(N2CCN(C(=O)C3CCN(c4nnc(N5CCCC5=O)s4)CC3)CC2)c1 | inconclusive [inhibitor, single point] | 
O=C(NCc1ccc(F)cc1)c1cnn2ccccc12 | inconclusive [inhibitor, single point] | 

Compound | Potency | activity change, negative = inhibition
O=C(NCc1cccnc1)/C(=C\c1ccc(-c2ccc(Br)cc2)o1)S(=O)(=O)c1ccccc1 | active: 11.2 µM | 
CCOC(=O)c1sc(NC(=O)CSc2nccc(C)n2)c(C#N)c1C | inconclusive [inhibitor, single point] | 
COc1cccc(/C=N/N2CCN(c3ccc(Cl)cc3)CC2)c1OC | inconclusive [inhibitor, partial curve] | 
Cc1csc(NC(=O)c2ccoc2C)n1 |  | inactive: 21.4%
CC(C)Cc1ccc(C(C)C(=O)Nc2cccnc2)cc1 (centres undefined) | active: 3.16 µM | 
CCOC(=O)c1ccccc1NC(=O)COC(=O)c1c(CC)noc1C | inconclusive [inhibitor, single point] | 
Cc1cccc(NC(=O)c2ccc(OCc3c(C)noc3C)cc2)n1 | inconclusive [inhibitor, partial curve] | 
Nc1nc(CSc2ccc(Cl)cc2)nc(N2CCCCC2)n1 | inconclusive [inhibitor, single point] | 
COc1cccc(CNC(=O)C(=O)NCC2CCCN2S(=O)(=O)c2cc(C)ccc2C)c1 (centres undefined) | inconclusive [inhibitor, partial curve] | 
CCCn1c(/N=C/c2cc(OC)ccc2O)nc2ccccc21 |  | inactive: 11.2%
CC(O)Cc1cn([C@@H](CCCCNC(=O)OC(C)(C)C)C(=O)N2CCN(C(=O)OC(C)(C)C)CC2)nn1 (some centres undefined) | inconclusive [inhibitor, full curve] | 
Cc1c(/C=N\NC(=O)c2cc3ccccc3o2)c2ccccc2n1C | inconclusive [inhibitor, full curve] | 
COc1ccc2c(c1)C(=O)N1[C@H]3c4cc(C)ccc4OC[C@@H]3[C@H](c3ccccc3)[C@]1(C)C(=O)N2 | inconclusive [inhibitor, partial curve] | 
CC(=O)c1cccc(NC(=S)NCCC2=CCCCC2)c1 | active: 11.2 µM | 
CC(C)c1ccc(NC2CCCN(C(=O)c3ccccc3-c3ncc[nH]3)C2)cc1 (centres undefined) | inconclusive [inhibitor, single point] | 
O=C(NCc1ccc(F)cc1)c1ccc(CS(=O)(=O)Cc2ccccc2F)o1 | inconclusive [inhibitor, single point] | 
CCOc1ccc(S(=O)(=O)N2CCCCC2)cc1NC(=O)c1ccccc1 | inconclusive [inhibitor, single point] | 
N#Cc1c(Cl)nc(Cl)c2c1CCN(Cc1ccccc1)C2 | inconclusive [inhibitor, full curve] | 
CCC(CO)Oc1cc(NC(=O)c2cccc(C)c2)c2ncn(C(C)C)c2c1 (centres undefined) | inconclusive [inhibitor, full curve, poor fit] | 
Cc1cc(C)cc(NS(=O)(=O)c2ccc(NC(=S)NC(=O)c3cccs3)cc2)c1 | inconclusive [inhibitor, single point] | 
CNC(=O)NC(=O)COC(=O)CCc1nc(=O)c2ccccc2n1C | inconclusive [inhibitor, single point] | 
O=C(COc1cccc2ccccc12)N/N=C/C=C/c1ccccc1 |  | inactive: 1.52%
CCOc1ccc(NCc2nnc(SCc3ccc(Cl)cc3)n2-c2ccccc2)cc1 | inconclusive [inhibitor, partial curve] | 
